# Measured values: PubChem BioAssay AID1508623 (National Center for Advancing Translational Sciences (NCATS), 2021)
# Hit rate of the full screen: of about 48,000 compounds, about 450 (0.94%) were called active. Roughly 19% stayed inconclusive and do not appear here. The call rests on the fitted dose curve; in most records, active means well fitted inhibition curve with a large enough effect; inconclusive means small, poorly fitted or top-dose-only effect; inactive means no such curve, though single readings can be large or run the other way. The list shows a part of the results.
# Assay: Primary qHTS for Identification of Small Molecule Inhibitors of Huntingtin Promoter Activity; further: nearly all actives have a fitted effect of over 50% in size
# Details: HEK293 HTT promoter firefly luciferase reporter (activity 0% = vehicle and -100% = no light), 24 h; series mostly up to 57.5 µM; activity change, negative = inhibition: at the top concentration
# In short: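 Quantitative HTS used concentration series of up to 57.5 uM final on HEK293 luciferase reporter cells, 24 h at 37 degrees C. Readout was Dual-Glo firefly luminescence.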
# Potency means the concentration at half of the fitted maximal effect.
Compound,"activity change, negative = inhibition",Potency
Cc1ccc2c(c1)-c1c(cnc3cc(-c4ccc(F)cc4)nn13)CO2,inactive: -6.51%,–
CCc1ccc(C2=C(C)C(N3CCC(C(=O)NCc4ccccc4)CC3)=NS2(=O)=O)cc1,inactive: -38.4%,–
COc1ccc(-c2cnc(C)o2)cc1S(=O)(=O)Nc1c(C)cc(C)cc1C,inactive: -34.3%,–
COc1cccc(NC(=O)CCc2c(C)nc3nc(CNC(=O)c4cccc(F)c4)nn3c2C)c1,inactive: -3.6%,–
C#CCOc1ccc(-c2nnc(Nc3ccc(NC(C)=O)cc3)c3ccccc23)cc1,inactive: -23.8%,–
Cc1c(Cl)cccc1NC(=O)C1CCCN(c2ncnc3onc(C)c23)C1 (configuration not stated),inactive: -13.9%,–
CCOC(=O)N1CCC(NC(=O)c2cnn(-c3cccc(F)c3)c2-n2cccc2)CC1,inactive: -33.4%,–
NS(=O)(=O)c1ccc(CCNc2ncnc3c2cnn3-c2cccc(Cl)c2)cc1,inactive: -32.2%,–
O=C(NCc1ccccc1Cl)c1ccc2c(c1)N(Cc1ccccc1)C(=O)CS2,inactive: -27.9%,–
COc1ccc(CCC(=O)NCc2nc3cccnc3n2Cc2ccc(F)cc2)cc1,inactive: -24.5%,–
CC1CCN(S(=O)(=O)c2ccc3c(c2)c(=O)c(C(=O)NC(C)c2ccccc2)cn3C)CC1 (configuration not stated),inactive: -34.2%,–
CN(CC(=O)Nc1ccccc1F)S(=O)(=O)c1ccc2c(c1)c(=O)n(C)c(=O)n2C,inactive: -2.67%,–
COc1ccc(CNC(=O)c2cc(=O)[nH]c3ccc(S(=O)(=O)N4CCCC4)cc23)c(OC)c1,inactive: -21.9%,–
CC(=O)c1cccc(NC(=O)C(CC(C)C)NS(=O)(=O)c2ccc3c(c2)CCN3C(C)=O)c1 (configuration not stated),inactive: -16.1%,–
COc1ccc(Cl)cc1NC(=O)c1ccc2c(c1)CCN2S(C)(=O)=O,inactive: -12.8%,–
Cc1cc(NC(=O)CSc2nc(-c3ccccc3C)nc3c2c(=O)n(C)c(=O)n3C)no1,inactive: -11.7%,–
CCOc1cc(C(=O)Nc2cccc3cccnc23)cc(OCC)c1OCC,inactive: -23.5%,–
Cc1ccc(Nc2nc3ccccc3c3nnc(C)n23)c(C)c1,inactive: 7.33%,–
COc1ccc(-c2cc3nc(C)c(CCC(=O)N4CCN(c5ccc(F)cc5)CC4)c(C)n3n2)c(OC)c1,inactive: -21.5%,–
CCCCN(CCCC)CCNC(=O)CN1C(=O)CSc2ccc(S(=O)(=O)N3CCOCC3)cc21,inactive: -19.2%,–
COc1ccccc1OCC(=O)NC1CC(=O)N(c2ccc3c(c2)OCCO3)C1 (configuration not stated),inactive: -11.4%,–

Compound,"activity change, negative = inhibition",Potency
CC(=O)c1cccc(Nc2cc(C)nc3nc(Cc4ccccc4)nn23)c1,inactive: -8.46%,–
COc1ccc(NC(=O)c2c(C)oc3ccc(O)c(CN4CCN(Cc5ccccc5)CC4)c23)cc1Cl,inactive: -17%,–
CC(=O)c1cc(-c2ccc(F)cc2)n(CC(=O)NC2CCC(C)CC2)c1C (configuration not stated),inactive: -27.8%,–
CC(=O)c1cccc(NC(=O)Nc2nnc(N3CCCC3)s2)c1,inactive: -8.9%,–
CCOC(=O)c1c(C)n(-c2ccccc2)c2ccc(OC(=O)c3cccc(C)c3)cc12,inactive: -18.9% [at 11.5 µM],–
CCCOc1ccc(CNC(=O)c2ccc(C)c(-n3c(C)nc4cccnc43)c2)cc1,inactive: -18.5%,–
Cc1oc2ncn(C)c(=O)c2c1C(=O)NCCCN1CCCCC1C (configuration not stated),inactive: -13.3%,–
O=C(Nc1cccc(C(F)(F)F)c1)N1CC2CCCN2c2ccccc21 (configuration not stated),inactive: -27.9%,–
COc1ccc(-n2nc(C(=O)Nc3ccc(Cl)cn3)c3c4ccccc4n(C)c3c2=O)cc1,inactive: -7.9%,–
COc1ccc2cc(-c3nnc(Nc4ccccc4)s3)c(=O)oc2c1,inactive: -6.66%,–
CCN(CC)C(=O)N1CCN(C)CC1,inactive: 1.68%,–
Nc1ccc(N=Nc2ccccc2)c(N)n1,inactive: 29%,–
Cc1ccccc1C(=O)OCc1cc(=O)n2nc(C(C)C)sc2n1,inactive: 62%,–
Cc1ccc(N2CCN(C(=O)c3cnn(-c4ccc(F)cc4F)c3C3CCN(C(=O)OC(C)(C)C)CC3)CC2)c(C)c1,inactive: -12.8%,–
CCN1CCN(C(c2ccc(C)cc2)c2c(O)cc(C)n(Cc3ccco3)c2=O)CC1 (configuration not stated),inactive: -5.39%,–
COc1ccc(-n2nc(C(=O)O)c(=O)n(C)c2=O)cc1,inactive: -1.73%,–
CCc1ccc(S(=O)(=O)c2nnn3c2nc(NCc2ccccc2)c2cc(Cl)ccc23)cc1,inactive: -4.05%,–
CCN1C(=O)C(Cc2nc3ccccc3c(=O)n2C)c2cc(C)ccc21 (configuration not stated),inactive: -14.4%,–
CCCNC(=O)C(Cc1ccccc1)NS(=O)(=O)c1ccc2c(c1)c(=O)n(C)c(=O)n2C (configuration not stated),inactive: -6.09%,–
CCOc1ccc(C(=O)Nc2ccc3c(c2)OCCO3)cc1Br,inactive: 32.8%,–
Cc1ccc(-c2csc3ncnc(Nc4ccc(C(=O)O)cc4)c23)cc1,inactive: -14.8%,–

Compound,"activity change, negative = inhibition",Potency
COc1ccccc1-c1nc2cc(NC(=O)c3ccccc3Cl)ccc2o1,inactive: 37.7%,–
COc1ccc2c(c1)CCc1c(C(=O)Nc3ccc(OC)cc3OC)noc1-2,inactive: -10%,–
COc1ccccc1NC(=O)c1sc2nc3n(c(=O)c2c1C)N=C(c1cccc(Br)c1)CS3,inactive: 12.7%,–
COc1ccc(Cn2c(C(=O)O)c(CNC3CCCCC3)c3ccc(C)cc32)cc1,inactive: -2.54%,–
COc1ccc(OC)c(/C=C(\C#N)c2nc(-c3ccc(F)cc3)cs2)c1,inactive: 0.359%,–
COc1ccc(Cl)cc1NC(=O)CN1Cc2ccccc2C1=O,inactive: -24.2%,–
Cc1nc(S(=O)(=O)N2CCN(c3ccccc3F)CC2)cn1C,inactive: -7.39%,–
Nc1c(-c2nc(-c3ccc4c(c3)OCO4)cs2)c2ccccn2c1C(=O)c1ccc(Cl)cc1,inactive: -10.9%,–
CCOc1ccc(NC(=O)Cc2c[nH]c3ccccc23)cc1,inactive: 48.3%,–
CCCC12CN3CC(C)(CN(C1)C3c1ccc(OCc3ccccc3)cc1)C2=O (configuration not stated),inactive: -14.1%,–
Cc1cccc(CNC(=O)CN2C(=O)CSc3c2c(C)nn3-c2ccccc2)c1,inactive: -9.6%,–
COc1cc(C(CC(=O)Nc2ncccc2C)N2Cc3ccccc3C2=O)cc(OC)c1OC (configuration not stated),inactive: -14.3%,–
Cc1ccc(C(=O)N2CCC(C)CC2)cc1NC(=O)c1nsc2ccccc12,inactive: -30%,–
O=C(OCc1cc(=O)n2nc(C3CC3)sc2n1)c1ccc(NC(=O)c2ccccc2F)cc1,inactive: -5.86%,–
CCOc1ccc(Br)cc1C1NC(=O)c2c(sc3c2CCN(C)C3)N1 (configuration not stated),inactive: 17.8% [at 11.5 µM],–
CC1CCN(S(=O)(=O)c2ccc3nc(N4CCN(c5ccc(F)cc5)CC4)ccc3c2)CC1,inactive: 20.7%,–
COc1ccc(CCNc2ncnc3onc(C)c23)c(OC)c1,–,active: 1260 nM
COCCCn1c(=N)c(C(=O)NC2CCCCC2)cc2c(=O)n3cc(C)ccc3nc21,inactive: 1.55%,–
CC1CCCCN1CCCNC(=O)Cn1ncc2c3ccccc3n(C)c2c1=O (configuration not stated),inactive: 4.8%,–
Cc1ccc(S(=O)(=O)c2cc3cc(C(=O)Nc4ccc(C)cc4C)ccc3oc2=O)cc1,inactive: -17.9%,–
